Measured values as given in the supplement of paper PMC11417369.
± gives the standard deviation of the averaged measurements. Some of the results follow.

tested on: PfAP2-G AP2 domain (GST-tagged); test: gcPBM binding intensity (ln(normalized median fluorescence intensity)); higher = stronger DNA binding
Summary of the method: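 Plasmodium falciparum DNA-binding domains carrying a GST tag were expressed in E. coli and applied for 1 h, at about 25 μg on average, to an Agilent 4 × 180k array. The array held primer-extended double-stranded 36-bp intergenic genomic probes together with negative controls, and binding took place in 1× PBS with 1% milk, 0.2 mg/ml BSA, 0.5% salmon testes DNA and 0.03% Triton X-100. An Alexa488 anti-GST antibody detected bound protein, and the array was scanned at 488 nm. Binding intensity is taken as the highest Masliner-normalised natural-log median intensity across replicate spots of either probe orientation.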

| Sequence | gcPBM binding intensity (ln) |
| --- | --- |
| AATTAATGGTTAAAGGTGCACAATACATATATTACA [GTGCAC_site9943] | 10.6 ± 0.47 |
| TATATACATAAACACACACACACATATATATATATA [CACACA_site8707] | 10.4 ± 0.64 |
| AATAAATTTAAACACACACACACATATATATATATA [CACACA_site4621] | 10.2 ± 0.38 |
| ATAATGTTCACATAGGTGCACTAATATAATTATCCA [GTGCAC_site9981] | 10.5 ± 0.32 |
| CATAATAGTTATAAAATACACACCAGGCATGATAAA [CACACA_site329] | 9.845 ± 0.049 |
| AAAAAAAAAAAAAAAAGTACTCAATAATAATTACAT [XGTACX_site670] | 11.5 ± 0.85 |
| ATATACACCTGAGAGGTGCATATATATAAAATTTAC | 10 ± 0.32 |
| TAGTATTTATATGATTAACACACATATGGGTATTAA [CACACA_site8363] | 10.2 ± 0.45 |
| AATGTAGTTTATCGATGTACACAAAATAAAGAGAAG [XGTACX_site6956] | 11.4 ± 0.81 |
| CCGTACAATTTTGTCACACATAAAATACTTATGTAT [CACACA_site4871] | 10.5 ± 0.25 |
| GTAATTTTTTTCTATACACACATATATATAATATAT [CACACA_site2655] | 10.2 ± 0.15 |
| AATATAAATATAAATATAAATAAATAAATAAATAAA [CACACA_negctrl_site291] | 9.465 ± 0.035 |
| CATTTATATAAAGAATGTACACACAGAAATGCACAC [XGTACX_site4718] | 11.4 ± 0.85 |
| ATAACTTTTATTTGTACACACATACATCTATATTAT [CACACA_site6595] | 11.4 ± 0.77 |
| AGTAAAAGAAAGCACACACACATGTATTTATGTATG [CACACA_site5998] | 9.995 ± 0.049 |
| AAAGTAAAAGGGTTTGGTACACATATAATATATTAG [XGTACX_site6036] | 11.1 ± 0.46 |
| AAAACCTAGTGCATTTGTACATATTTCAATTTTAAA [XGTACX_site4582] | 10.9 ± 0.5 |
| TAAAAAATACAAGAGTGTACAAAATTTTTCTAAATG [XGTACX_site5334] | 11 ± 0.5 |
| TATATGTATCCATTATGTACATAATAGTAATATAAT [XGTACX_site4008] | 11.1 ± 0.66 |

| Sequence | gcPBM binding intensity (ln) |
| --- | --- |
| TATATTTATTTTCTGTGTACACATATGTTGTGTATT [XGTACX_site7640] | 11.6 ± 1 |
| CTATATATTTTTTCTTAACACACATATATAAAATAA [CACACA_site9165] | 10.1 ± 0.42 |
| TATACGTGTTTTATTTGTACTTAAGCAGGTAAGCAT [XGTACX_site193] | 11 ± 0.57 |
| ATTAAAAAAAAAAAAAAAAAAAAAAAAAAAAAAAAA [CACACA_negctrl_site1060] | 9.72 ± 0.17 |
| ATTGATAAATTAACTAGTACACATATAAATATATTA [XGTACX_site2325] | 11.3 ± 0.93 |
| TTATTTTTTAATTATATTCAAAATTAAAAAAAAAAA [XGTACX_negctrl_site226] | 9.64 ± 0.29 |
| AATATAAATGTGATTACACACAACAGATTTAAATGG [CACACA_site4802] | 10.1 ± 0.13 |
| CACACGCACGAACACACACACATATAAATATAAATA [CACACA_site6299] | 10.4 ± 0.5 |
| ATATATTATTATACATGTACATATATAGATATATAT [XGTACX_site4358] | 11.1 ± 0.59 |
| TCTTATAAAGGTAATTGTACATATTTATAATTTCTT [XGTACX_site4847] | 11 ± 0.49 |
| GTGAAAGGAAAAGTTGAACACACAAAGTAAACTATA [CACACA_site9178] | 10.18 ± 0.014 |
| AATAATATTTAATACGCACACAATAATAATATAAAA [CACACA_site1763] | 10.4 ± 0.32 |
| AAAAAAAAGAATAGCACACACACATATATAAATATA [CACACA_site630] | 9.96 ± 0.15 |
| TATAATGGTTCTGGTGTGCACCATGACAGAATCAAG | 10.6 ± 0.45 |
| AACAATAATTTTGAATGTACATATAAATATTTTTAT [XGTACX_site5501] | 11.1 ± 0.59 |
| ATATACATATAGGATGCACACATAATTCAAATACAA [CACACA_site8120] | 10.1 ± 0.22 |
| CAAAATAAAAATAACACACACATTTATATAAATACA [CACACA_site4790] | 9.935 ± 0.035 |
| ACAGTTAAAACAATAACACACAAAGAAAAAAAAAAA [CACACA_site737] | 10.1 ± 0.28 |
| TATAATATATTATATACACACATTATAAAATACCCA [CACACA_site4858] | 10.12 ± 0.092 |

| Sequence | gcPBM binding intensity (ln) |
| --- | --- |
| GTTAATTCTATGAATTGTACTTAAATATAATTATAT [XGTACX_site2785] | 11.1 ± 0.95 |
| ATAAATACTAAAAATGAAATATAGAAAATAGCAATA [CACACA_negctrl_site501] | 9.85 ± 0.014 |
| TATATTTTTATTGAACGTACAAAAAGTCGAAAACAG [XGTACX_site3967] | 11.4 ± 0.74 |
| TTTAAATACAGACATACACACATACACGCACATATA [CACACA_site6400] | 10.5 ± 0.3 |
| AGGTAGAAATTGTTAAAAAATCATACATATTATATA [CACACA_negctrl_site622] | 9.81 ± 0.099 |
| ATTCTATATGTTACATAAACCTATATTTTTTTTTTT [CACACA_negctrl_site860] | 9.83 ± 0.085 |
| ATAAAGCCATACAATACACACATTTTACATGTCGGT [CACACA_site3265] | 10.01 ± 0.057 |
| TAAGCCACCATATTTACACACACATCAAAATGTATT [CACACA_site1815] | 10.06 ± 0.057 |
| GAAAAAAGAAATTTATGTACATACATATATATATAT [XGTACX_site7888] | 11.2 ± 0.76 |
| CATTCAAAGAAAAACAGTACGTGTAGCAAAAGGCCT [XGTACX_site266] | 10.9 ± 0.57 |
| TAATATTGACTATATACACACATATAAATATAAATA [CACACA_site6414] | 9.91 ± 0.11 |
| TATATATATATATATACATGCATCATTGTTCACCTT [TGCATGCA_site177] | 9.94 ± 0.099 |
| TTTTTTTTTTAATTAACACACATAAATATAAATATA [CACACA_site7527] | 9.99 ± 0.4 |
| AAAAAAAAAAAAAAAAGTACATATGCTCAAGAGATG [XGTACX_site3783] | 11.5 ± 0.82 |
| GCTGAAAATAAATGAAGTACACAAGTAATATATATA [XGTACX_site6205] | 11.5 ± 0.95 |
| TAAATAATATAATTATGTACGTATTTCTTTATTTTA [XGTACX_site8410] | 11.4 ± 0.83 |
| ATCATTTAAACAATATGTACTCATTGTAGATATGGT [XGTACX_site5088] | 11.3 ± 0.85 |
| TGAATAAAATATTATACACACATATGTATTTAACAT [CACACA_site4694] | 9.955 ± 0.007 |
| AATGGGATCATGGTATGTACTTACACAAATGAATTA [XGTACX_site5389] | 11.3 ± 0.59 |
